These results are taken from PubChem BioAssay AID1508624 (National Center for Advancing Translational Sciences (NCATS), 2021).

Out of some 48,000 compounds screened, about 120 (0.25%) were called active. Inconclusive results (about 4%) are left out. Calls come from the whole dose curve; as a rule, active = well fitted activation curve with a large enough effect; inconclusive = small, poorly fitted or top-dose-only effect, or another doubt; inactive = no such curve, though single readings can be large or run the other way. This is one part of the list.

A short description of this assay: Primary qHTS for Identification of Small Molecule Activators of Huntingtin-Antisense Promoter Activity. Note: nearly all actives have a fitted effect of over 55% in size. The conditions noted are these: HEK293 HTT-AS promoter firefly luciferase reporter (activity 0% = vehicle and -100% = no light), 24 h; series mostly up to 57.5 µM; activity change, positive = activation: at the top concentration. In outline:
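Luminescence was read after Dual-Glo reagent and a 10 min room-temperature incubation. Values were normalized to vehicle (0% activity) and zero RLU (-100% activity). Reporter HEK293 cells had been exposed to compounds (up to 57.5 uM final) for 24 h.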
In general terms: qHTS replaces the single test concentration by a dilution series.
For the compound `CC(C)c1ccc(NC(=O)C(Cc2ccccc2)NS(=O)(=O)c2ccc3c(c2)oc(=O)n3C)cc1` (stereo not drawn), the “activity change, positive = activation” value is inactive: -11.6%. The value for `COc1ccc(Nc2nc(-c3ccccc3F)nc3ccccc23)cc1OC` was inactive: -14.5%; that for `O=C(NCCCN1CCN(c2ccc(F)cc2)CC1)c1ccc2nc(CCc3ccccc3)oc2c1` was inactive: -19.9%; that for `Cc1ccc(N2CC(C(=O)NCc3nnnn3-c3ccc(C)c(C)c3)CC2=O)cc1` (stereo not drawn) was inactive: -6.94%. `COC(=O)c1ccc(Cn2c(SCC(=O)Nc3ccc(F)cc3)nc3ccccc32)cc1`: the “activity change, positive = activation” value is inactive: -21%. Under `O=c1cc(N2CCOCC2)oc2c(-c3ccccc3)cccc12` stands inactive: -5.87%; under `CCCCN(CC)Cc1ccc(CNS(=O)(=O)c2cc3c(cc2Cl)NC(=O)CO3)o1`, inactive: -15.6%; under `CCOc1ccc(NC(=O)Cn2c(=O)n(Cc3ccc(C(=O)NCc4ccc5c(c4)OCO5)cc3)c(=O)c3ccccc32)cc1`, inactive: -6.07%. With `CCCCOc1ccc(C(=O)Nc2ccc3c(c2)CCCN3S(=O)(=O)c2ccc(C)cc2)cc1`, the “activity change, positive = activation” value was inactive: -17.2%.

Take `O=C(NCc1ccccn1)c1nn(-c2ccccc2F)nc1CO`: the “activity change, positive = activation” value was inactive: -39.2%. Consider `COc1cc(CN2CCN(S(=O)(=O)c3ccc(F)cc3)CC2)cc(OC)c1OC`, for which the “activity change, positive = activation” value was inactive: -23.5%. As to `Fc1ccccc1C1=NC(c2ccc(C(F)(F)F)cc2)=Nc2ccccc2N1`, the “activity change, positive = activation” value is inactive: -20.6%. Take `CCOc1ccccc1CN1CCc2nc(Nc3ccccc3)ncc2C1`: the “activity change, positive = activation” value is inactive: -12.4%. Under `COC(=O)c1cc(OC)c(OC)cc1NC(=O)c1ccc2c(c1)CCN2S(=O)(=O)c1ccccc1` stands inactive: 9.23%; under `Fc1ccc(-n2ncc3c(N4CCN(Cc5ccccc5)CC4)ncnc32)cc1`, inactive: 26.8%. Under `COc1ccc(OC)c(CCNC(=O)CN2C(=O)COc3ccc(S(=O)(=O)N4CCCCCC4)cc32)c1` stands inactive: -22.2%; under `COc1cccc(CNC(=O)CSc2n[nH]c(-c3ccccc3Cl)n2)c1`, inactive: -5.66%.

With `Cc1ccc(C)c(Cn2cnc3ccccc3c2=O)c1`, the “activity change, positive = activation” value is inactive: -21.6%.

On to `COc1cccc(CNC(=O)CCNS(=O)(=O)c2ccc3c(c2)CCCC(=O)N3)c1`, for which the “activity change, positive = activation” value is inactive: -10.1%. The value for `CC1=C(C(=O)Nc2ccccc2)C(c2cccs2)n2nc(SCc3ccccc3)nc2N1` (stereo not drawn) was inactive: -4.91%; that for `O=C(Nc1c2c(nn1-c1ccc(Cl)cc1)CS(=O)(=O)C2)c1cccc(Cl)c1` was inactive: -43.5%; that for `O=C(CSc1ccc2nnc(CCNS(=O)(=O)c3ccccc3)n2n1)Nc1ccccc1C(F)(F)F` was inactive: -22.4%.

For `CCc1cccc(NC(=O)CN2c3ccccc3S(=O)(=O)c3ccccc32)c1`, the “activity change, positive = activation” value was inactive: -13.6%. Take `CC(=O)N1c2ccc(S(=O)(=O)NCCC(=O)Nc3ccc(C)cc3Br)cc2CC1C` (stereo not drawn): the “activity change, positive = activation” value is inactive: -21.8%. Under `Cc1ccc(CNC(=O)Cn2ccn(-c3cc(C)cc(C)c3)c(=O)c2=O)cc1` stands inactive: -5.56%; under `COc1ccccc1NC(=O)Cn1nc(C)n2cccc2c1=O`, inactive: -3.02%; under `COc1ccc(OC)c(NC(=O)c2cc3cc4ccc(C)cc4nc3s2)c1`, inactive: 13.1%.

Take `Cn1ccc2cc(S(=O)(=O)N3CCN(C(=O)Nc4ccccc4F)CC3)ccc21`: the “activity change, positive = activation” value was inactive: 1.35%. As to `Nc1nc(N)c(S(=O)(=O)c2ccccc2)c(Nc2ccc(F)cc2)n1`, the “activity change, positive = activation” value is inactive: -28.9%. With `CCOC(=O)c1c(Nc2cccc(C)c2)nnc(-c2ccccc2)c1-c1ccccc1`, the “activity change, positive = activation” value is inactive: -46.9%. The value for `CCOC(N)=O` was inactive: 1.67%; that for `O=C(CSc1nc2ccccc2nc1Cc1ccccc1)N1CCCc2ccccc21` was inactive: -23.6%.

Regarding `COc1cc(-c2ccno2)ccc1S(=O)(=O)N1CCN(c2ccc(F)cc2)CC1`, the “activity change, positive = activation” value was inactive: -36%. With `CCc1ccc2occ(CC(=O)N(Cc3ccc(N(C)C)cc3)C3CCS(=O)(=O)C3)c2c1` (stereo not drawn), the “activity change, positive = activation” value was inactive: -17.9%. For the compound `CCOC(=O)N1CCC(NC(=O)c2ccc3c(c2)N(Cc2ccc(Cl)cc2)C(=O)c2ccccc2S3=O)CC1` (stereo not drawn), the “activity change, positive = activation” value was inactive: -39.8%. In the case of `Cc1cccc(N(C)S(=O)(=O)c2nnc(NC(=O)C3CCCCC3)s2)c1`, the “activity change, positive = activation” value was inactive: -19%. Take `CCOc1ccc(NC(=O)Cn2c(=O)cc(C)c3c(C)nn(-c4ccc(CC)cc4)c32)cc1`: the “activity change, positive = activation” value is inactive: 11.6%.

Regarding `COc1ccc(C(=O)Nc2ccccc2C(=O)OCc2cc(=O)n3nc(C4CC4)sc3n2)cc1`, the “activity change, positive = activation” value is inactive: 15%. Consider `CCOC(=O)N1CCc2c(sc3c2c(=O)n(-c2ccc(CC)cc2)c(=O)n3Cc2cc(C)ccc2C)C1`, for which the “activity change, positive = activation” value is inactive: -5.89%. Turning to `CCOC(=O)c1c(C)oc2nc(C)nc(Nc3cc(C)ccc3OC)c12`, the “activity change, positive = activation” value is inactive: -1.3%.

`CCOc1ccccc1NC(=O)C1CCCN(S(=O)(=O)c2cn(C)cn2)C1` (stereo not drawn): the “activity change, positive = activation” value is inactive: -9.2%. Take `CC(C)c1ccc(/C=C(\C#N)c2nc(-c3ccc(O)cc3)cs2)cc1`: the “activity change, positive = activation” value is inactive: -20.1%. As for `CCc1nnc(NC(=O)CSc2nc3c([nH]c4ccccc43)c(=O)n2-c2ccc(OC)cc2)s1`, the “activity change, positive = activation” value was inactive: -20.4%. For the compound `O=C(C1CCCCC1)N(Cc1cccnc1)c1nc2ccc(F)cc2s1`, the “activity change, positive = activation” value was inactive: -14.8%. In the case of `Cc1cccc(CS(=O)(=O)Cc2ccc(C(=O)NCc3ccc(Cl)cc3)o2)c1`, the “activity change, positive = activation” value is inactive: -29.9%. The value for `CCCCC12CN3CC(C)(CN(C1)C3c1c(C)[nH]c(=O)[nH]c1=O)C2=O` (stereo not drawn) was inactive: 10.3%; that for `COc1ccc(-c2cccc(NS(=O)(=O)c3cc(C)c(Cl)cc3C)c2)nn1` was inactive: -51.8%; that for `CCN(CCCNC(=O)c1nn(-c2ccc(OC)cc2)c(=O)c2c1c1ccccc1n2C)c1cccc(C)c1` was inactive: -5.13%.
